# Data from PubChem BioAssay AID686978 (National Center for Advancing Translational Sciences (NCATS), 2013).
# Out of some 420,000 compounds screened, about 64,000 (15%) were called active. The inconclusive results got no clear call from the source; some entries with a clear call stand among them for comparison. Calls come from the whole dose curve; as a rule, active = well fitted inhibition curve with a large enough effect; inconclusive = small, poorly fitted or top-dose-only effect; inactive = flat fitted curve, though single readings scatter. No potency is given beside an inconclusive call; the fits are too rough.
# Test: qHTS for Inhibitors of human tyrosyl-DNA phosphodiesterase 1 (TDP1): qHTS in cells in absence of CPT; note: nearly all actives have a fitted effect of over 55% in size
# Conditions: DT40 Tdp1-/- hTDP1 cells, no CPT, ATP luminescence, 48 h; activity change, negative = growth inhibition: at 46.2 µM (top of the series) unless noted
# Procedure, shortened: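 Growth kinetics read by CellTiter-Glo luminescence after ≥48 hr at 37 °C. Cells: DT40 Tdp1-/- stably carrying human TDP1, 400 per well, compound exposure in the absence of CPT (DMSO vehicle).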
# % is set by controls: 0 for no effect and ±100 for the full control effect; potency is the fitted concentration of half-maximal effect; tags give direction and shape of the fitted curve.
SMILES,Potency,"activity change, negative = growth inhibition"
COc1ccc2oc(CS(=O)c3ccccc3)c(C(=O)O)c2c1 (stereo not drawn),inactive,
CCOC(=O)C(C)Oc1ccc2c(CC)cc(=O)oc2c1C (stereo not drawn),inactive,
Cc1ccc(NC(=O)c2sc3ccccc3c2Cl)cc1,inactive,
CCCCCCCCn1c2c(c(=N)c3c1CCC3)CCCC2,active: 1.03 µM,
O=C(Cc1ccc([N+](=O)[O-])cc1)Nc1cccc(C(F)(F)F)c1,"inconclusive [inhibitor, single point]",
COCCNC(=O)[C@H]1C[C@@H]1[C@H](NP(=O)(c1ccccc1)c1ccccc1)c1ccccc1,"inconclusive [inhibitor, partial curve]",
COc1ccc2oc(C(=O)N3CCCc4ccccc43)c(C)c2c1,"inconclusive [inhibitor, partial curve]",
O=C(Nc1cccc(C(=O)N2CCCCC2)c1)c1nsc2ccccc12,"inconclusive [inhibitor, single point]",
Cc1cc(Nc2cccc(C(F)(F)F)c2)nc2ccc(NC(=O)c3ccc(N(C)C)cc3)cc12,active: 4.61 µM,
COc1ccc(C(=O)CSc2ncnc3nc[nH]c23)cc1,"inconclusive [inhibitor, partial curve]",
COCCNC(=O)C1(C)CCN(Cc2noc(-c3c(C)noc3C)n2)C1 (stereo not drawn),inactive,
CCCn1c(SCC(=O)Nc2ccccc2N2CCOCC2)nc2c1c(=O)n(C)c(=O)n2C,"inconclusive [inhibitor, single point]",
CC(=O)Nc1ccc(-c2ccnc3c2CC(C(=O)Nc2ccc(C(C)C)cc2)O3)cc1 (stereo not drawn),"inconclusive [inhibitor, single point]",
Cn1c(-c2ccc([N+](=O)[O-])cc2)nc2ccccc21,inactive,
CCOC(=O)C1C(=O)CC(C)(O)C(C(=O)OCC)C1c1ccccc1 (stereo not drawn),inactive,
NC(=O)c1nsc(C(=O)N(c2cccc(O)c2)C(C(=O)NC2CCCC2)c2ccc(Cl)cc2)c1N (stereo not drawn),"inconclusive [inhibitor, partial curve, poor fit]",
COc1ccc(NS(=O)(=O)c2cccc(C(=O)NNC(=O)CN3C(=O)NC(C)(C)C3=O)c2)cc1,inactive,
O=C(NCCc1ccccc1)c1ccc2c(=O)[nH]c3c(C(=O)NCC4CCCO4)sc(=S)n3c2c1 (stereo not drawn),"inconclusive [inhibitor, single point]",
CC1CCN(CCCN2C(=O)C3C(C(=O)Nc4ccc(Cl)cc4)C4C=CC3(O4)C2C(=O)NC2CCCCC2)CC1 (stereo not drawn),"inconclusive [inhibitor, single point]",
Oc1c(Br)cc(/C=N/NC(=S)NCc2ccco2)cc1Br,,inconclusive: -33.8% [inhibitor]
CCOC(=O)CSc1nnc(CNc2ccc(F)cc2)o1,inactive,
Cc1ccc(CN(Cc2cccnc2)C(=S)Nc2cc(Cl)ccc2C)cc1,"inconclusive [inhibitor, single point]",
O=[N+]([O-])c1ccc(S(=O)(=O)N2CCN(c3ccnc4cc(Cl)ccc34)CC2)cc1,"inconclusive [inhibitor, single point]",
Clc1ccc2c(c1)C1OCCC1C(c1ccco1)N2 (stereo not drawn),"inconclusive [inhibitor, partial curve]",
CCOc1ccc(Oc2cc(N)cc([N+](=O)[O-])c2)cc1,"inconclusive [inhibitor, partial curve]",

SMILES,Potency,"activity change, negative = growth inhibition"
Cc1c(C(=O)OCC(O)=C(C#N)c2nc3ccccc3[nH]2)oc2ccc(Br)cc12,inactive,
Cc1cccn2c(=O)c(/C=C(\C#N)c3nc4ccccc4n3C)c(Oc3ccc(Br)cc3)nc12,active: 6.51 µM,
O=[N+]([O-])c1ccccc1N/N=C/c1ccccc1,"inconclusive [inhibitor, single point]",
CC1(C)C2CCC1(CS(=O)(=O)NCc1ccc(S(N)(=O)=O)cc1)C(=O)C2 (stereo not drawn),inactive,
CCN(c1ccccc1)S(=O)(=O)c1ccc(NC(=O)c2ccco2)cc1,"inconclusive [inhibitor, partial curve]",
O=C(CN1CCN(c2ccc(Cl)cc2)CC1)Nc1ccc(F)cc1F,"inconclusive [inhibitor, single point]",
CN(C(=O)c1ccccc1F)C(c1ccccc1)c1ccccc1,active: 16.4 µM,
CCOC(=O)Cn1nc(-c2ccccc2)nc1-c1ccccc1,inactive,
CCCNC(=O)c1ccccc1NC(=O)c1ccccc1N(C)S(C)(=O)=O,inactive,
CCc1noc(C)c1C(=O)N1CCCC(C(=O)c2cc(F)ccc2OC)C1 (stereo not drawn),"inconclusive [inhibitor, partial curve, poor fit]",
COc1ccc(OC)c(N=Cc2c(O)[nH]c3ccccc23)c1,"inconclusive [inhibitor, single point]",
COc1cccc2c1OCC(CN1CCN(CCC(C)C)C(CCO)C1)=C2 (stereo not drawn),inactive,
CCN(CC)c1ccc(/C=N/NC(=S)NCc2ccccc2)c(O)c1,"inconclusive [inhibitor, partial curve, poor fit]",
COc1ccc(C[C@](C)(N)C(=O)O)cc1OC,active: 2.31 µM,
COc1ccccc1C(=O)NCCC(=O)Nc1nc2ccccc2[nH]1,"inconclusive [inhibitor, single point]",
CSCc1c(C(=O)Nc2ccccc2N2CCOCC2)oc2ccccc12,active: 7.31 µM,
CCN(CC)c1ccc(CNc2nc3ccccc3n2CCN2CCCCC2)cc1,"inconclusive [inhibitor, single point]",
O=c1oc2ccccc2cc1-c1cn2ccccc2n1,"inconclusive [inhibitor, partial curve]",
Cn1nnnc1SCC(=O)NC1CCCc2ccccc21 (stereo not drawn),inactive,
CN1C(=O)c2ccccc2Sc2ccc(NC(=O)Nc3ccccc3F)cc21,"inconclusive [inhibitor, single point]",
Cc1n[nH]c(=O)n(N=Cc2c[nH]c3ccccc23)c1=O,inactive,
CCCC(=O)OCCNc1cc(SCCC(=O)OC)c2nonc2c1[N+](=O)[O-],"inconclusive [inhibitor, single point]",
O=C(N1CCN(c2ccccc2)CC1)C1(c2cccs2)CCOCC1,"inconclusive [inhibitor, single point]",
CCOC(=O)CC(NC(=O)c1cccs1)c1ccc(C)cc1 (stereo not drawn),inactive,
CC(C)c1ccc(CN2CCN(C(=O)CSc3nnnn3C3CC3)CC2)cc1,active: 11.6 µM,

SMILES,Potency,"activity change, negative = growth inhibition"
CC(C)C(=O)NC(c1ccco1)c1ccc2cccnc2c1O (stereo not drawn),active: 4.61 µM,
Cc1ccc(C(=O)NCC(=O)OCc2c(F)cccc2Cl)s1,inactive,
CCOc1ccc(N(CC(=O)Nc2ccc(F)cc2F)S(=O)(=O)c2c(C)[nH]c(=O)[nH]c2=O)cc1,inactive,
CCc1ccc(NC(=O)c2cc(S(=O)(=O)N3CCc4ccccc43)cn2C)cc1,"inconclusive [inhibitor, single point]",
CCOc1ccc(C(=O)N2CCN(c3cccc(Cl)c3)CC2)cc1,,inconclusive: -34.2% [inhibitor]
COC(=O)c1sccc1NC(=O)CC1C(=O)NCCN1C(=O)c1ccc(C)c(C)c1 (stereo not drawn),inactive,
CCOc1ccc(S(=O)(=O)N2CCCC(C(=O)N3CCOCC3)C2)cc1C (stereo not drawn),"inconclusive [inhibitor, single point]",
COc1cc(/C=N/NC(=O)c2cccc3ccccc23)cc(OC)c1O,"inconclusive [inhibitor, full curve]",
CC1CN(/C=C/C=O)C(C)CC1OC(=O)c1ccccc1 (stereo not drawn),inactive,
COc1ccc(CNC(=O)C(=O)NCC(c2cccs2)S(=O)(=O)c2ccc(F)cc2)cc1 (stereo not drawn),"inconclusive [inhibitor, single point]",
CCOC(=O)c1ccc(OCC2c3cc(OC)c(OC)cc3CCN2C(=O)Cc2ccc(F)cc2)cc1 (stereo not drawn),active: 18.4 µM,
CCN(CC1CCCO1)C(=O)CCc1nnc(CCc2ccccc2)o1 (stereo not drawn),inactive,
COc1ccccc1OCC(=O)N(Cc1nc(-c2ccc(Cl)cc2)no1)C(C)C,active: 16.4 µM,
CC[C@H](C)C(C(=O)N1CCN(C(=O)OC(C)(C)C)CC1)n1cc(C(CC(C)C)NC(=O)OC(C)(C)C)nn1 (stereo partly drawn),"inconclusive [inhibitor, single point]",
Nc1cc(OC(=O)c2ccccc2Br)nn1S(=O)(=O)c1ccccc1,"inconclusive [inhibitor, single point]",
CC(=O)N1CCCc2cc(S(=O)(=O)N(C)CC(=O)Nc3ccc(F)cc3Cl)ccc21,"inconclusive [inhibitor, single point]",
O=C(O)CCCN1C(=O)/C(=C/C=C/c2ccco2)SC1=S,,inconclusive: -32% [inhibitor]
Cc1ccc(-c2nnn3c2nc(NC(C)C)c2ccccc23)cc1,"inconclusive [inhibitor, partial curve]",
O=C(NCC(c1ccc2c(c1)OCO2)N1CCN(c2ccccc2)CC1)c1ccccc1F (stereo not drawn),active: 11.6 µM,
c1ccc2sc(NCC3CCCO3)nc2c1 (stereo not drawn),inactive,
CCOc1ccc(C(=O)Nc2ccc(N3CCN(C(C)=O)CC3)cc2)cc1[N+](=O)[O-],"inconclusive [inhibitor, single point]",
Cc1sc(NC(=O)CN(CCc2ccccc2)C(=O)C2CC2)c(C(N)=O)c1C,"inconclusive [inhibitor, single point]",
COc1ccccc1N1CCN(C(CNC(=O)c2ccco2)c2cccnc2)CC1 (stereo not drawn),"inconclusive [inhibitor, single point]",
